# Assay results from the supplement of paper PMC9135407.
# Several values for one entry are separate records, joined by “and”; a condition that tells them apart may be missing. Identical values can stand only once. Counter-ions that a name gives are not always drawn. In all, about 5,800 compounds went through this assay and about 620 (11%) showed activity.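 How the source made its calls: active = score above a cut-off or among the top three wells of a plate; in these data no inactive exceeds 0.85.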 This is a selection; strong and weak results do not stand in their true shares.
# Tested on: primary human hepatic stellate cells (donor 1)
# Test: scaled lipid accumulation score (0 = DMSO-like, 1 = nortriptyline-like); higher = stronger HSC inactivation (lipid re-accumulation), active = hit call of the paper
# Settings: 48 h
# [1] = library stock concentration: 10 mM
# [2] = library stock concentration: 80 uM
# [3] = library stock concentration: 400 uM
# [4] = library stock concentration: 2 mM
# [5] = library stock concentration: 3.33 mM
# [6] = library stock concentration: 1 mM
compound,measurement,setting,value
CC(C)N(CCCNC(=O)Nc1ccc(C(C)(C)C)cc1)C[C@H]1O[C@@H](n2cc(Br)c3c(N)ncnc32)[C@H](O)[C@@H]1O,scaled lipid accumulation score,[1],active: 1.12
NC(=O)C1(N2CCCCC2)CCN(CCCC(=O)c2ccc(F)cc2)CC1,scaled lipid accumulation score,[1],inactive: ≤ 0
CNC1(C)C2CCC(C2)C1(C)C (stereo unspecified) [Mecamylamine HCl],scaled lipid accumulation score,library stock concentration: 12 mM,inactive: ≤ -0.006
CNC1(C)C2CCC(C2)C1(C)C (stereo unspecified) [Mecamylamine hydrochloride],scaled lipid accumulation score,,inactive: 0.017
same,scaled lipid accumulation score,[1],inactive: 0.459
Cc1c(Cn2c(C)nc3c(C(=O)O)cc(N4CCOCC4)cc32)cccc1C(F)(F)F,scaled lipid accumulation score,[2],inactive: ≤ 0
same,scaled lipid accumulation score,[3],inactive: 0.007
same,scaled lipid accumulation score,[4],inactive: ≤ 0
same,scaled lipid accumulation score,[5],inactive: ≤ -0.009
same,scaled lipid accumulation score,[1],inactive: 0.228 and inactive: ≤ 0
CCCCCCCCCCCCCCCC[N+](C)(C)C [Cetrimonium bromide],scaled lipid accumulation score,[1],inactive: 0.737
CCCCCCCCCCCCCCCC[N+](C)(C)C [Cetrimonium Bromide (CTAB)],scaled lipid accumulation score,[5],inactive: ≤ 0
same,scaled lipid accumulation score,[1],inactive: 0.624
O=C(NCc1ccc(Oc2ccccc2)cc1)c1nc(-c2cc(Br)c(O)c(Br)c2)no1,scaled lipid accumulation score,[5],inactive: ≤ -0.009
same,scaled lipid accumulation score,[1],inactive: ≤ 0
CC(=C(CCO)SSCC1CCCO1)N(C=O)Cc1cnc(C)nc1N (stereo in doubt) [Fursultiamine Hydrochloride],scaled lipid accumulation score,,inactive: ≤ 0
C[C@@H]1CC2C3C[C@H](F)C4=CC(=O)C=C[C@]4(C)[C@@]3(F)[C@@H](O)C[C@]2(C)[C@@]1(O)C(=O)COC(=O)C(C)(C)C (stereo partly specified) [Flumethazone pivalate],scaled lipid accumulation score,library stock concentration: 4 mM,inactive: 0.012
same,scaled lipid accumulation score,[1],inactive: ≤ 0
CCC(C)(CN(C)C)OC(=O)c1ccccc1 (stereo unspecified) [Amyleine hydrochloride],scaled lipid accumulation score,,inactive: 0.054
O=C(O)C=CC(=O)O.OCCOCCN1CCN(C2=Nc3ccccc3Sc3ccccc32)CC1.OCCOCCN1CCN(C2=Nc3ccccc3Sc3ccccc32)CC1 [Quetiapine Fumarate],scaled lipid accumulation score,[1],active: 1.06
O=C(/C=C/c1ccc(/C=C/C(=O)Nc2ccc(C3=NCCN3)cc2)cc1)Nc1ccc(C2=NCCN2)cc1 [GW 4869 (hydrochloride hydrate)],scaled lipid accumulation score,[6],inactive: 0.115
C=C(NC(=O)C(=C)NC(=O)c1csc(C2=N[C@@H]3c4csc(n4)[C@H]4NC(=O)c5csc(n5)[C@H]([C@](C)(O)[C@@H](C)O)NC(=O)[C@H]5CSC(=N5)/C(=C/C)NC(=O)[C@H]([C@@H](C)O)NC(=O)c5csc(n5)[C@]3(CC2)NC(=O)[C@H](C)NC(=O)C(=C)NC(=O)[C@H](C)NC(=O)[C@H]([C@@H](C)CC)N[C@@H]2C=Cc3c([C@H](C)O)cc(nc3[C@H]2O)C(=O)O[C@@H]4C)n1)C(N)=O [Thiostrepton],scaled lipid accumulation score,,active: 1.19
CC(C)C[C@@H](/C=C/S(C)(=O)=O)NC(=O)[C@H](CC(C)C)NC(=O)[C@H](CC(C)C)NC(=O)OCc1ccccc1,scaled lipid accumulation score,library stock concentration: 9.1 mM,inactive: 0.738
CCCc1nc(C(C)(C)O)c(C(=O)OCc2oc(=O)oc2C)n1Cc1ccc(-c2ccccc2-c2nnn[nH]2)cc1 [Olmesartan Medoxomil],scaled lipid accumulation score,[5],inactive: ≤ 0
same,scaled lipid accumulation score,[1],inactive: ≤ 0
CCCc1nc(C(C)(C)O)c(C(=O)OCc2oc(=O)oc2C)n1Cc1ccc(-c2ccccc2-c2nnn[nH]2)cc1,scaled lipid accumulation score,[1],inactive: ≤ 0
CCCc1nc(C(C)(C)O)c(C(=O)OCc2oc(=O)oc2C)n1Cc1ccc(-c2ccccc2-c2nnn[nH]2)cc1 [Olmesartan medoxomil],scaled lipid accumulation score,library stock concentration: 3.6 mM,inactive: ≤ 0
same,scaled lipid accumulation score,[1],inactive: 0.287
Cn1c(=O)c2c(ncn2CC(O)CO)n(C)c1=O (stereo unspecified) [Dyphylline],scaled lipid accumulation score,[5],inactive: ≤ 0
same,scaled lipid accumulation score,library stock concentration: 7.9 mM,inactive: 0.001
same,scaled lipid accumulation score,[1],inactive: ≤ 0
Cn1c(=O)c2c(ncn2CC(O)CO)n(C)c1=O (stereo unspecified) [Diprophylline],scaled lipid accumulation score,,inactive: ≤ 0
Nc1nccs1 [Aminothiazole],scaled lipid accumulation score,[5],inactive: ≤ 0
same,scaled lipid accumulation score,[1],inactive: ≤ -0.001 and inactive: ≤ -0.027
NC(=O)c1cccnc1 [Nicotinamide (Vitamin B3)],scaled lipid accumulation score,[5],inactive: ≤ 0
same,scaled lipid accumulation score,[1],inactive: ≤ 0
NC(=O)c1cccnc1 [Niacinamide],scaled lipid accumulation score,library stock concentration: 16.4 mM,inactive: ≤ 0
NC(=O)c1cccnc1,scaled lipid accumulation score,[1],inactive: ≤ 0
CCOC(=O)CCNc1cc(N2CCc3ccccc3CC2)nc(-c2ccccn2)n1,scaled lipid accumulation score,[2],inactive: ≤ 0
same,scaled lipid accumulation score,[3],inactive: ≤ 0
same,scaled lipid accumulation score,[4],inactive: ≤ 0
same,scaled lipid accumulation score,[5],inactive: ≤ 0
same,scaled lipid accumulation score,[1],inactive: 0.064 and inactive: ≤ 0
COc1ccc2[nH]c([S+]([O-])Cc3ncc(C)c(OC)c3C)nc2n1 (stereo unspecified) [Tenatoprazole],scaled lipid accumulation score,library stock concentration: 5.8 mM,inactive: 0.081
Cc1cc(=O)oc2c(C=O)c(O)ccc12,scaled lipid accumulation score,[5],inactive: ≤ -0.009
same,scaled lipid accumulation score,[1],inactive: 0.302
CN(C)CCOC(c1ccccc1)c1ccccc1 [Diphenhydramine hydrochloride],scaled lipid accumulation score,,inactive: 0.459
same,scaled lipid accumulation score,library stock concentration: 6.9 mM,inactive: 0.166
same,scaled lipid accumulation score,[1],inactive: ≤ 0 and inactive: 0.31
CN(C)CCOC(c1ccccc1)c1ccccc1 [Diphenhydramine HCl],scaled lipid accumulation score,[5],inactive: 0.102
same,scaled lipid accumulation score,library stock concentration: 7.8 mM,inactive: 0.192
same,scaled lipid accumulation score,[1],inactive: 0.084
CN(C)CCOC(c1ccccc1)c1ccccc1,scaled lipid accumulation score,[1],inactive: 0.458
CN1CCCC(CC2c3ccccc3Sc3ccccc32)C1.Cl.O (stereo unspecified) [Metixene hydrochloride],scaled lipid accumulation score,,active: 1.12
N.N.N.N.N.N.N.N.N.N.N.N.N.N.O.O.[Cl-].[Cl-].[Cl-].[Cl-].[Cl-].[Cl-].[Ru+4].[Ru+5].[Ru+5] [Ruthenium red],scaled lipid accumulation score,[1],inactive: ≤ 0
CN1CCC(c2c(O)cc(O)c3c(=O)cc(-c4ccccc4Cl)oc23)C1CO (stereo unspecified) [Riviciclib],scaled lipid accumulation score,[2],inactive: 0.019
same,scaled lipid accumulation score,[3],inactive: 0.272
same,scaled lipid accumulation score,[4],inactive: ≤ -0.001
same,scaled lipid accumulation score,[1],inactive: 0.002
Cn1cc(CNCC2CCN(c3ncc(C(=O)NO)cn3)CC2)c2ccccc21,scaled lipid accumulation score,[5],inactive: 0.478
CC(=O)[C@H]1CC[C@H]2[C@@H]3CCC4=CC(=O)CC[C@]4(C)[C@H]3CC[C@]12C,scaled lipid accumulation score,[1],inactive: 0.22
CC(=O)[C@H]1CC[C@H]2[C@@H]3CCC4=CC(=O)CC[C@]4(C)[C@H]3CC[C@]12C [Progesterone],scaled lipid accumulation score,,inactive: 0.281
same,scaled lipid accumulation score,[5],inactive: 0.022
same,scaled lipid accumulation score,library stock concentration: 6.4 mM,inactive: 0.529 and inactive: 0.188
same,scaled lipid accumulation score,[1],inactive: ≤ 0 and inactive: 0.362
OC(CN1CCC(Cc2ccc(F)cc2)CC1)c1ccc(Cl)cc1 (stereo unspecified) [Eliprodil],scaled lipid accumulation score,[1],inactive: 0.268 and inactive: 0.657
NC(Cc1cc(I)c(Oc2cc(I)c(O)c(I)c2)c(I)c1)C(=O)O (stereo unspecified) [Thyroxine (L)],scaled lipid accumulation score,,inactive: 0.125
NC(Cc1cc(I)c(Oc2cc(I)c(O)c(I)c2)c(I)c1)C(=O)O (stereo unspecified) [Thyroxine],scaled lipid accumulation score,[1],inactive: ≤ 0
CC(NC(=O)Cc1cc(F)cc(F)c1)C(=O)NC(C(=O)OC(C)(C)C)c1ccccc1 (stereo unspecified),scaled lipid accumulation score,[5],inactive: ≤ 0
same,scaled lipid accumulation score,[1],inactive: ≤ 0
C[C@]12CC[C@@H]3c4ccc(O)cc4CC[C@H]3[C@@H]1CC[C@@H]2O,scaled lipid accumulation score,[1],inactive: ≤ 0
C[C@]12CC[C@@H]3c4ccc(O)cc4CC[C@H]3[C@@H]1CC[C@@H]2O [beta-Estradiol],scaled lipid accumulation score,[1],inactive: 0.557
C[C@]12CC[C@@H]3c4ccc(O)cc4CC[C@H]3[C@@H]1CC[C@@H]2O [Estradiol],scaled lipid accumulation score,[5],inactive: ≤ 0
same,scaled lipid accumulation score,library stock concentration: 7.3 mM,inactive: 0.061 and inactive: 0.087
same,scaled lipid accumulation score,[1],inactive: ≤ 0
same,scaled lipid accumulation score,library stock concentration: 18.4 mM,inactive: 0.222
C[C@]12CC[C@@H]3c4ccc(O)cc4CC[C@H]3[C@@H]1CC[C@@H]2O [Estradiol-17 beta],scaled lipid accumulation score,,inactive: 0.337
CCCCCCCCCCCCCCCCOC[C@H](COP(=O)([O-])OCC[N+]1(C)CCCC1)OC(C)=O [Pyrrolidino PAF C-16],scaled lipid accumulation score,[6],inactive: ≤ 0
Cc1c(NC(=O)N2CCOCC2)ccc2c1c1ccccc1n2C(C)C,scaled lipid accumulation score,[1],inactive: ≤ 0
CCCN(CCC)S(=O)(=O)c1ccc(C(=O)O)cc1,scaled lipid accumulation score,[1],inactive: ≤ 0
CCCN(CCC)S(=O)(=O)c1ccc(C(=O)O)cc1 [Probenecid],scaled lipid accumulation score,,inactive: ≤ 0
same,scaled lipid accumulation score,[5],inactive: ≤ 0
same,scaled lipid accumulation score,library stock concentration: 7 mM,inactive: 0.027
same,scaled lipid accumulation score,[1],inactive: ≤ -0.001 and inactive: ≤ 0
CCNC(=O)Nc1ccc(-c2nc3c(c(N4CCOC[C@@H]4C)n2)CCN(C2COC2)C3)cc1,scaled lipid accumulation score,[5],inactive: ≤ -0.009
same,scaled lipid accumulation score,[1],inactive: 0.169
CCN(CC)C(=O)c1cccnc1,scaled lipid accumulation score,[1],inactive: 0.073
CC(C)c1ccc(NC(=O)Cn2cnc3c2c(=O)n(C)c(=O)n3C)cc1,scaled lipid accumulation score,[5],inactive: ≤ 0
same,scaled lipid accumulation score,[1],inactive: ≤ 0
"Cc1c(C2CCN(CCc3ccccc3)CC2)noc1-c1ccc(Cl)cc1 [L-741,742 hydrochloride]",scaled lipid accumulation score,[1],inactive: 0.452
O=C(O)c1ccc(-c2ccc3cc(O)c(C45CC6CC(CC(C6)C4)C5)cc3c2)cc1,scaled lipid accumulation score,[1],inactive: 0.021
Nc1ccn([C@@H]2O[C@H](CO)[C@@H](O)C2(F)F)c(=O)n1 [Gemcitabine hydrochloride],scaled lipid accumulation score,[1],inactive: 0.179
Nc1ccn([C@@H]2O[C@H](CO)[C@@H](O)C2(F)F)c(=O)n1 [Gemcitabine HCl],scaled lipid accumulation score,library stock concentration: 7.6 mM,inactive: ≤ -0.006
Nc1ccn([C@@H]2O[C@H](CO)[C@@H](O)C2(F)F)c(=O)n1 [Gemcitabine],scaled lipid accumulation score,[5],inactive: ≤ 0
same,scaled lipid accumulation score,[1],inactive: ≤ 0
CN1C(=O)CC(c2ccccc2)C1=O (stereo unspecified),scaled lipid accumulation score,[1],inactive: ≤ 0
CN1C(=O)CC(c2ccccc2)C1=O (stereo unspecified) [Phensuximide],scaled lipid accumulation score,,inactive: 0.035
COc1ccccc1N1CCN(CCN(C(=O)C2CCCCC2)c2ccccn2)CC1,scaled lipid accumulation score,[5],inactive: ≤ 0
same,scaled lipid accumulation score,[1],inactive: ≤ 0 and inactive: 0.094
CC1CNc2c(cccc2S(=O)(=O)N[C@@H](CCCNC(=N)N)C(=O)N2CC[C@@H](C)C[C@@H]2C(=O)O)C1 (stereo partly specified) [Argatroban],scaled lipid accumulation score,[5],inactive: 0.03
same,scaled lipid accumulation score,[1],inactive: ≤ 0
